# This is one part of the list.
# T1: UNK ZnF1-3 (human, UniProt Q9C0B0 31-174)
# T1 sequence: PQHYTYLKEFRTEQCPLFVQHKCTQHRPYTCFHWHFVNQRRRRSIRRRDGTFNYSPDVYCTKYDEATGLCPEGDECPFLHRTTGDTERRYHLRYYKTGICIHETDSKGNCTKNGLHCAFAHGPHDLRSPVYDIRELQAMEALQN
# B1: chr12:32871593:32871594:+_ENSG00000087470_ENST00000452533|hu_mus|FALSE|FALSE (ssRNA)
# RNA: GGGAGUUCUACAGUCCGACGAUCCAAUACAUCCAUGGCAUCAGUACCCGCAUCCAUGAGAUCAAGUUUAGUGAUUACAGCUAGAGUUCUGCGCCCAUCUGGAUCUACCUCUCUGGAAAUCUUGAGUGCUUCUGAUGUUGCCAUCAACAGAGGAUUGAGCAUCA
# B2: 110434536_110436406_1209_CDS_ENSG00000134987_ENST00000506538|human|control|control (ssRNA)
# RNA: GGGAGUUCUACAGUCCGACGAUCCCACAACUGCAGGCUUCCUUGUUCACUGCCCAGAAGUAUUUUAUUCAAGUAGGUACUUGGAUGCAAAAUUGCAGAAAUUUUAAAUACUGAUUUAUCAAAAGUCAACUGCAGGUAUUCUUCCAACAGAGGAUUGAGCAUCA
# B3: chr7:140404665:140404666:+_ENSG00000090266_ENST00000247866|hu_hu|hu_hu_hu_mus_False|28_78 (ssRNA)
# RNA: GGGAGUUCUACAGUCCGACGAUCUGCUCCUACUCGUCCAGAGAGUUUACAGUGUCAGUCUUCAUCAUCAGGAGGGAUUCCCAGUUCUUCAUCUGUCCACUGUGAAGGAUCAGGAUAUGAAAAGUGACCCAGCACAGCAUCCGACAACAGAGGAUUGAGCAUCA
# B4: chr2:104430793:104430794:+_ENSMUSG00000027176_ENSMUST00000028599|mus_mus|motif|central (ssRNA)
# RNA: GGGAGUUCUACAGUCCGACGAUCCGUCUCCUGACAUGGCCUCGGGGGACUACAACGUACGCACCAGCCGGCAAAGGGAAGCGGGAAAAGGAAAAUUAAACUAAAGGCAAACCCCACCAAAACCAGGAACACUACCCCUGUCCCCAACAGAGGAUUGAGCAUCA
# B5: chr22:38882006:38882007:-_ENSG00000100201_ENST00000396821|hu_mus|FALSE|FALSE (ssRNA)
# RNA: GGGAGUUCUACAGUCCGACGAUCUGGAGGAGGGGGAGGGGGAGGGGGAGGGUACUGGUAAGCAGUCUGCCCCAUGUAGCCUAUCAUAUUGGUAGCUCCUGGAGGCUGUGCAAACUGCUGUGACAUCAGUGGCUGUGGCUGCUGCAACAGAGGAUUGAGCAUCA
# B6: 42737102_42738829_3480_CDS_ENSG00000103994_ENST00000263805|human|control|control (ssRNA)
# RNA: GGGAGUUCUACAGUCCGACGAUCAUCCAUGCACUGCAAUGACUUACUAAGUUCUUCCUCCCUUAAAGAAAUAUUCAGCAGCUGGUCAACCUGAGAACGUUCUUUUUUUCCUUUAAUUUUCCUUCUUUUAUUUUUUCUCUCAAGCAACAGAGGAUUGAGCAUCA
# B7: 27614021_27614141_989_CDS_ENSG00000108256_ENST00000225388|human|control|control (ssRNA)
# RNA: GGGAGUUCUACAGUCCGACGAUCUUUGGAGGCAACAGCUGAAGCAUGCUUUCCUUUGGGCCGAUCAUCAAACUUUUUGCUGCUCACACCAGGUUUACUAUCUGAGCUUUUCCGAAGCAUAUCACCCACAGCAGGUUUUCCUCGCAACAGAGGAUUGAGCAUCA
# B8: chr2:37284132:37284133:-_ENSMUSG00000066798_ENSMUST00000053098|mus_mus|motif|central (ssRNA)
# RNA: GGGAGUUCUACAGUCCGACGAUCAUACAGAUUGGGUGGGGGGCAACACUACAUGUGCUGCAUUUUUAUAAAAUGUGUCGGAAAAAGUCAUUGAUUUGAUUACAGUAGAUUCUGCCGUUUGAGAUCAGGCCUAGAUAAUUUUUCCAACAGAGGAUUGAGCAUCA
# B9: chr8:61654917:61654918:+_ENSG00000171316_ENST00000423902|hu_hu|FALSE|FALSE (ssRNA)
# RNA: GGGAGUUCUACAGUCCGACGAUCAUUCAUUGGAGUAUUAUUUGUAAGGCCUAAAUUUUGAUUCAUCCCUGUAUUGUUAACUAAUCCCUGAUUUAGGUUACUGUAAGGAUAUCGAGAAUACUGCCCUGAGUUGUUUAUAGUAGGCAACAGAGGAUUGAGCAUCA
# B10: chr7:141438946:141438947:+_ENSG00000106028_ENST00000265304|hu_mus|hu_hu_hu_mus_True|38_38 (ssRNA)
# RNA: GGGAGUUCUACAGUCCGACGAUCGACGAAAUACCUGUAACACAGGUCUUCGAAACAUGGCUUCUGUUUUUCUUACAACCUAAUCUUUAGGCUUUUCCUGACGAUCUGAAAGAAAAGAGAAAAAUGAUAAAUCAAGAAACUACACAACAGAGGAUUGAGCAUCA
# B11: chr7:75932113:75932114:+_ENSG00000106211_ENST00000248553|hu_hu|hu_hu_hu_mus_False|1_88 (ssRNA)
# RNA: GGGAGUUCUACAGUCCGACGAUCCUGCGACCACUCAUCGGGCAACCGGGGCAGCCCGAAAGCUUGAUCGAAGAGGCGGCUGUGUGCAGGGUACCAGUCCCGGAAUGGUUCCCAGCUCGGGCUCCGCAGCAGCGAGAGGACGCGCAACAGAGGAUUGAGCAUCA
# B12: chr11:43861564:43861565:+_ENSG00000149084_ENST00000278353|hu_hu|motif|central (ssRNA)
# RNA: GGGAGUUCUACAGUCCGACGAUCCAGUUUUGUAGCUACGAAGUAUGGCAGGACACUCUGCACAAAGACGCCCUUGCUCCGGUACUCCUCAUGGAGGCACUGAGAGAAGAAAUCUACAAAAGUCUUGGUUGCAGAAUAGAUGGUCAACAGAGGAUUGAGCAUCA
# B13: chr13:111190716:111190717:+_ENSMUSG00000021701_ENSMUST00000022212|mus_hu|FALSE|FALSE (ssRNA)
# RNA: GGGAGUUCUACAGUCCGACGAUCCAGUUCCAAAGUCCUCUGGCUGAAAUGCUCUCAACAGAGAGAAUUUAAGAAUCAAUGCACCUUUCUGCAAAAUUGUCUGAAAAACCUUUUAAAACAGGUAUCUCAAGGAAAACUGCAUUCCAACAGAGGAUUGAGCAUCA
# B14: chr1:163112212:163112213:-_ENSG00000143248_ENST00000313961|hu_hu|hu_hu_hu_mus_False|1_68 (ssRNA)
# RNA: GGGAGUUCUACAGUCCGACGAUCUUUUAUUAUCAGUAAGAGUGAGUUACAUACUAGGCAAAGUAUUGAAUACAAAAAUCAGGAAACAAACACUAUUGGUCCAGAAUUUAAAACUUUAUGAGCGAAGUGCUGGCACAGGAUUUACAACAGAGGAUUGAGCAUCA
# B15: chr1:85784824:85784825:-_ENSG00000153904_ENST00000284031|hu_mus|FALSE|FALSE (ssRNA)
# RNA: GGGAGUUCUACAGUCCGACGAUCGGGGCAAUGAUUUUCCCUUUUAGAGGUAACGUUAUGUGAUGAGAACAUCGAAGGGGCAAUGCUGCGUGUAUUUUGCGUGUUCACAUCUCUGAAUCACACAGGGGGUCUGAAGAGCAGAGUCAACAGAGGAUUGAGCAUCA
# B16: chr3:35992786:35992787:+_ENSMUSG00000027710_ENSMUST00000011492|mus_mus|motif|central (ssRNA)
# RNA: GGGAGUUCUACAGUCCGACGAUCAAAAAUGGAGCAGAUACCGAAAGAAAGGUCAUCCAGAGAUGGGCCCAAUUUGCAAUCGGUCCGGUGUAAAGGCACCAAACACCAACACUAUUACUGCUGUGUUUGCAGAUAGGAGCCCAGCAACAGAGGAUUGAGCAUCA
# B17: chr21:33032072:33032073:+_ENSG00000142168_ENST00000270142|hu_hu|FALSE|FALSE (ssRNA)
# RNA: GGGAGUUCUACAGUCCGACGAUCUGCACUGGGCCGUCGCCCUUCAGCACGCACACGGCCUUCGUCGCCAUAACUCGCUAGGCCACGCCGAGGUCCUGGUUCCGAGGACUGCAACGGAAACCCCAGACGCUGCAGGAGACUACGCAACAGAGGAUUGAGCAUCA
# B18: chr1:193054138:193054139:+_ENSG00000116747_ENST00000432079|hu_hu|FALSE|FALSE (ssRNA)
# RNA: GGGAGUUCUACAGUCCGACGAUCUUACACUUUUUGCUCUUACCUCUUUUAGGUACACACGUAUUAUUCAACAAAGCAAAACUAUUUUACAGUGUCUGUUAACAAAAAGUUCUCUAUUAGAUAGAGGAAACUACAGUAUCCUGACAACAGAGGAUUGAGCAUCA
# B19: chr17:55916980:55916981:-_ENSG00000181610_ENST00000313608|hu_mus|motif|central (ssRNA)
# RNA: GGGAGUUCUACAGUCCGACGAUCCAAAGCUGGUGCUUUCAAACCACAGUACUGAGAUUCAUAACAUCCCGAAAACAGGGACGGAGAGAAGGCACACGUGCCUGAGAGAUGGAGGCCAUCAGAGUCCAUCAGCUUGGGCCAGCGCAACAGAGGAUUGAGCAUCA
# B20: 112512530_112513563_1003_3pUTR_ENSG00000111300_ENST00000261745|human|control|control (ssRNA)
# RNA: GGGAGUUCUACAGUCCGACGAUCAAUCGAAAUAAGUCAGAUAGAACUGCCAGUCAUCUGAGUUUUUUAGUAAGAGGCGCCGGGAAAGGGCAUUGCACUCUGGCCACCUGCUCAGCUUCUUGUACAUAGCCAUGCAUUUAUUUUCAACAGAGGAUUGAGCAUCA
# B21: 36985904_36986024_3150_CDS_ENSG00000164190_ENST00000448238|human|control|control (ssRNA)
# RNA: GGGAGUUCUACAGUCCGACGAUCAGUUGGUGAUUUAAAACCAAGUUUAUCAGAUCUUGAUUUAUUAGAAUCUCCUUGUUUAACACGAGGACUGUCAGGUCUUGAUUUUUGUUCCCCAGAAGAUGGUCUUUCCCUUGAGUCCCCCAACAGAGGAUUGAGCAUCA
# B22: chr11:86533019:86533020:-_ENSMUSG00000047126_ENSMUST00000103186|perfect_dup|FALSE|FALSE (ssRNA)
# RNA: GGGAGUUCUACAGUCCGACGAUCAAGAAGAUGGGUGUGAACCACUGCACGUUUUAUAUCAUAUAAAUCAGUGAAAUGUUCUAAUGCACGCUGCAGUAGGCCAGCCUUUUCACACAGUUGAGCAAUAUGAGCCCGGUCAUAAUGCAACAGAGGAUUGAGCAUCA
# Target: T1, UNK ZnF1-3
# Test: nsRBNS (natural sequence RNA bind-n-seq); RBNS binding buffer (assumed for nsRBNS): 25 mM Tris pH 7.5, 150 mM KCl, 3 mM MgCl2, 0.01% Triton X-100, 500 ug/ml BSA, 20 U/ml SUPERase-In, 4 C; UNK is unkempt and MSI1 is Musashi-1; names of the RNAs are library labels; protein concentration not given here; high values mean tight binding
row,Binder,binding signal [enrichment R]
1,B1,1.16
2,B2,1.07
3,B3,1.18
4,B4,2.18
5,B5,1.39
6,B6,1.08
7,B7,0.969
8,B8,1.56
9,B9,0.83
10,B10,0.683
11,B11,1.05
12,B12,1.11
13,B13,1.08
14,B14,1.38
15,B15,0.839
16,B16,1.02
17,B17,0.576
18,B18,0.427
19,B19,1.11
20,B20,0.992
21,B21,0.501
22,B22,1.24

# Source: publication PMC12136788
